# In patent US10654915B2, “Antibodies useful in passive influenza immunization” (priority 2011, dated 2020):
# B1: MAB579 (antibody, V domains shown)
# VH: QVQLVQSGAEVKKPGASVKVSCKTSGYTFTAYTIHWVRQAPGQRLEWMGWINAGNGHTKYSQRFKGRVTITRDTSARTTYMELRSLTSEDTALYFCARGPETYYYDKTNWLNSHPDEYFQHWGHGTQVTVSS
# VL: DIQMTQSPSTLSASVGDRVTITCRASQTINNYLAWYQQKPGKAPKLLIYKASSLESGVPSRFSGSGSGTEFTLTISSLQPDDFATYYCQEYNNDSPLTFGGGTKVEIK
# modifications: CHAIN (1)...(132) MAB579 heavy chain sequence of variable domain; DOMAIN (31)...(35) CDR1; DOMAIN (50)...(67) CDR2; DOMAIN (99)...(121) CDR3; CHAIN (1)...(108) MAB579 light chain sequence of variable domain; DOMAIN (24)...(34) CDR1; DOMAIN (50)...(57) CDR2; DOMAIN (89)...(98) CDR3
# System: H3N2 (A/Perth/16/2009)
# Assay: Inhibition of infection and plaque formation in MDCK cell monolayers with or without trypsin
# Conditions: FIG. 4B
molecule,measurement,value
B1,inhibition of infection in presence or absence of trypsin,inhibits infection in both the presence and absence of trypsin
